Test results from the GPR68 mutational scans of Howard et al. (2025).
The least precise scores are not listed. Two further conditions of the source, in which the scores hardly spread, are not listed. In variant names, del marks residues removed and ins residues inserted between the two positions. For some of these results: The data file names ogerin without a concentration.

B1: GPR68, Q15743 (parent)
chain: MGNITADNSSMSCTIDHTIHQTLAPVVYVTVLVVGFPANCLSLYFGYLQIKARNELGVYLCNLTVADLFYICSLPFWLQYVLQHDNWSHGDLSCQVCGILLYENIYISVGFLCCISVDRYLAVAHPFRFHQFRTLKAAVGVSVVIWAKELLTSIYFLMHEEVIEDENQHRVCFEHYPIQAWQRAINYYRFLVGFLFPICLLLASYQGILRAVRRSHGTQKSRKDQIQRLVLSTVVIFLACFLPYHVLLLVRSVWEASCDFAKGVFNAYHFSLLLTSFNCVADPVLYCFVSETTHRDLARLRGACLAFLTCSRTGRAREAYPLGAPEASGKSGAQGEEPELLTKLHPAFQTPNSPGSGGFPTGRLA

What was measured:
[1] = variants of: B1; test: cAMP reporter score (Enrich2 score, wild type = 0); higher = more signal; HEK293T, FACS bins
[2] = variants of: B1; test: surface expression score (Enrich2 score, wild type = 0); higher = more signal; HEK293T, FACS bins

Row | Variant | cAMP reporter score ([1]; pH 5.5) | cAMP reporter score ([1]; pH 6) | cAMP reporter score ([1]; pH 6, modulator: ogerin) | cAMP reporter score ([1]; pH 6.5, modulator: ogerin) | surface expression score [2]
1 | MGNITADNSSMSCTIDHTIHQTLAPVVYVTVLVVGFPANCLSLYFGYLQIKARNELGVYLCNLTVADLFYTCSLPFWLQYVLQHDNWSHGDLSCQVCGILLYENIYISVGFLCCISVDRYLAVAHPFRFHQFRTLKAAVGVSVVIWAKELLTSIYFLMHEEVIEDENQHRVCFEHYPIQAWQRAINYYRFLVGFLFPICLLLASYQGILRAVRRSHGTQKSRKDQIQRLVLSTVVIFLACFLPYHVLLLVRSVWEASCDFAKGVFNAYHFSLLLTSFNCVADPVLYCFVSETTHRDLARLRGACLAFLTCSRTGRAREAYPLGAPEASGKSGAQGEEPELLTKLHPAFQTPNSPGSGGFPTGRLA [I71T] | 0.335 | -0.313 | -0.439 | -1.31 | -1.07
2 | MGNITADNSSMSCTIDHTIHQTLAPVVYVTVLVVGFPANCLSLYFGYLQIKARNELGVYLCNLTVADLFYVCSLPFWLQYVLQHDNWSHGDLSCQVCGILLYENIYISVGFLCCISVDRYLAVAHPFRFHQFRTLKAAVGVSVVIWAKELLTSIYFLMHEEVIEDENQHRVCFEHYPIQAWQRAINYYRFLVGFLFPICLLLASYQGILRAVRRSHGTQKSRKDQIQRLVLSTVVIFLACFLPYHVLLLVRSVWEASCDFAKGVFNAYHFSLLLTSFNCVADPVLYCFVSETTHRDLARLRGACLAFLTCSRTGRAREAYPLGAPEASGKSGAQGEEPELLTKLHPAFQTPNSPGSGGFPTGRLA [I71V] | 0.62 | 0.392 | -0.04 | -0.469 | -0.011
3 | MGNITADNSSMSCTIDHTIHQTLAPVVYVTVLVVGFPANCLSLYFGYLQIKARNELGVYLCNLTVADLFYWCSLPFWLQYVLQHDNWSHGDLSCQVCGILLYENIYISVGFLCCISVDRYLAVAHPFRFHQFRTLKAAVGVSVVIWAKELLTSIYFLMHEEVIEDENQHRVCFEHYPIQAWQRAINYYRFLVGFLFPICLLLASYQGILRAVRRSHGTQKSRKDQIQRLVLSTVVIFLACFLPYHVLLLVRSVWEASCDFAKGVFNAYHFSLLLTSFNCVADPVLYCFVSETTHRDLARLRGACLAFLTCSRTGRAREAYPLGAPEASGKSGAQGEEPELLTKLHPAFQTPNSPGSGGFPTGRLA [I71W] | -0.496 | -1.7 | – | -0.195 | -3.06
4 | MGNITADNSSMSCTIDHTIHQTLAPVVYVTVLVVGFPANCLSLYFGYLQIKARNELGVYLCNLTVADLFYYCSLPFWLQYVLQHDNWSHGDLSCQVCGILLYENIYISVGFLCCISVDRYLAVAHPFRFHQFRTLKAAVGVSVVIWAKELLTSIYFLMHEEVIEDENQHRVCFEHYPIQAWQRAINYYRFLVGFLFPICLLLASYQGILRAVRRSHGTQKSRKDQIQRLVLSTVVIFLACFLPYHVLLLVRSVWEASCDFAKGVFNAYHFSLLLTSFNCVADPVLYCFVSETTHRDLARLRGACLAFLTCSRTGRAREAYPLGAPEASGKSGAQGEEPELLTKLHPAFQTPNSPGSGGFPTGRLA [I71Y] | -1.81 | -1.05 | -1.23 | -1.73 | -1.91
